We go through two molecules from article PMC12205066, “Lysosomal EGFR acts as a Rheb-GEF independent of its kinase activity to activate mTORC1” (Cell Research, 2025).

In test [1] the target is T1, purified EGFR-TKD-WT (amino acids 696-1022) (human, UniProt P00533 696-1022).
T1 construct: Cloned into pFastBac1 by EcoRI and XbaI; the tag is not described; also called tyrosine kinase domain of EGFR; source: Sf9, baculovirus, purified (Ni-NTA, Superdex 200)
Kind of test: pull-down; 15 μg EGFR-TKD with 15 μg GDP-loaded GST-Rheb, GST beads, overnight at 4 °C, Coomassie staining. The conditions noted are these: both partners purified.

The target of test [2] is T1, purified EGFR-TKD-WT (amino acids …). In words: SEC; EGFR-TKD incubated with a 3-fold molar excess of Rheb-D60V in buffer B (50 mM HEPES pH 7.5, 5 mM MgCl2, 1 mM DTT) with 1 mM EDTA overnight at 4 °C, size exclusion in buffer B; complex peak at 10.22 mL, fractions on SDS-PAGE. The conditions noted are these: both partners purified.

B1: GST-tagged Rheb […] (domain or fragment)
chain: not shown
notes: human Rheb, wild type, […]; also used nucleotide-free or loaded with GDP or GTPgammaS; In the nucleotide exchange assays purified Rheb-GDP was used (GST may have been cleaved by HRV3C); also called GST-Rheb; Rheb-WT; source: E. coli BL21(DE3), purified (GST resin); not shown: GST, N-terminal, kept
On to B1, for which, in test [1], the binding result is reported as “binds”.

B2: purified Rheb-D60V ([…]) (domain or fragment)
chain: not shown
notes: human Rheb, […], with D60V; The methods say that Rheb was cleaved from GST with HRV3C protease when necessary; source: E. coli BL21(DE3), purified (GST resin, Superdex 200)
As for B2, in test [2], the binding result is recorded as “binds”.
